Results on 27 compounds are retold here after the supplement of paper PMC6089552.

The assay relates to A673/TR/shEF. The assay is described as follows: cell viability (LOESS-normalised, relative to median of negative controls) (log2 ratio); higher = more viable cells (less compound effect), active = hit call of the paper (over 3 MAD below the median). As to conditions: treatment time: 72 h. A digest of the protocol:
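For three days, A673/TR/shEF Ewing sarcoma cells in 384-well plates (1,500 per well) were treated with library compounds at two or more concentrations or with DMSO controls, after doxycycline had been added or withheld 24 h beforehand to induce EWS-FLI1 shRNA knockdown. Viability was read by CellTiter-Glo luminescence on an Envision reader. The data were LOESS-corrected per plate, divided by the median of negative controls and log2-transformed.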

Setting [1] is: 0.25 µM, library screen: screen1, EWS-FLI1 expression: high (no doxycycline).
Setting [2] is: 0.25 µM, library screen: screen1, EWS-FLI1 expression: low (doxycycline-induced shRNA knockdown).
Setting [3] is: 2.5 µM, library screen: screen1, EWS-FLI1 expression: high (no doxycycline).
Where [4] appears, read: 2.5 µM, library screen: screen1, EWS-FLI1 expression: low (doxycycline-induced shRNA knockdown).
[5] abbreviates: 0.25 µM, library screen: screen2, EWS-FLI1 expression: high (no doxycycline).
The mark [6] stands for this setting: 0.25 µM, library screen: screen2, EWS-FLI1 expression: low (doxycycline-induced shRNA knockdown).
[7] abbreviates: 2.5 µM, library screen: screen2, EWS-FLI1 expression: high (no doxycycline).
The mark [8] stands for this setting: 2.5 µM, library screen: screen2, EWS-FLI1 expression: low (doxycycline-induced shRNA knockdown).
[9] abbreviates: 0.103 µM, library screen: screen3, EWS-FLI1 expression: high (no doxycycline).
The mark [10] stands for this setting: 0.103 µM, library screen: screen3, EWS-FLI1 expression: low (doxycycline-induced shRNA knockdown).
The mark [11] stands for this setting: 0.308 µM, library screen: screen3, EWS-FLI1 expression: high (no doxycycline).
[12] abbreviates: 0.308 µM, library screen: screen3, EWS-FLI1 expression: low (doxycycline-induced shRNA knockdown).
Where [13] appears, read: 0.926 µM, library screen: screen3, EWS-FLI1 expression: high (no doxycycline).
Where [14] appears, read: 0.926 µM, library screen: screen3, EWS-FLI1 expression: low (doxycycline-induced shRNA knockdown).
[15] abbreviates: 2.8 µM, library screen: screen3, EWS-FLI1 expression: high (no doxycycline).
The mark [16] stands for this setting: 2.8 µM, library screen: screen3, EWS-FLI1 expression: low (doxycycline-induced shRNA knockdown).
The mark [17] stands for this setting: 8.3 µM, library screen: screen3, EWS-FLI1 expression: high (no doxycycline).
[18] abbreviates: 8.3 µM, library screen: screen3, EWS-FLI1 expression: low (doxycycline-induced shRNA knockdown).
The mark [19] stands for this setting: 25 µM, library screen: screen3, EWS-FLI1 expression: high (no doxycycline).
Where [20] appears, read: 25 µM, library screen: screen3, EWS-FLI1 expression: low (doxycycline-induced shRNA knockdown).

In all, about 3,200 compounds went through this assay and about 300 (9.4%) showed activity. The entries are a selection whose mix differs from that of the whole data set.

As to `Oc1ccc(Cl)cc1Cc1cc(Cl)ccc1O`, the “cell viability (log2)” value was inactive: 0.0717 under setting [1], inactive: 0.203 under setting [2], inactive: 0.162 under setting [3] and inactive: 0.181 under setting [4].

Consider `CCCCC/C=C\C/C=C\C/C=C\C/C=C\CCCC(=O)NCC(=O)O`, for which the “cell viability (log2)” value was inactive: 0.154 under setting [5], inactive: 0.137 under setting [6], inactive: 0.147 under setting [7] and inactive: 0.135 under setting [8].

Turning to `CCCC(C)(COC(N)=O)COC(=O)NC(C)C` (configuration not stated), under setting [7], the “cell viability (log2)” value was active: -0.0715.

As to `CCCC1CCCCN1` (configuration not stated), the “cell viability (log2)” value was inactive: 0.115 under setting [1], inactive: 0.153 under setting [2], inactive: 0.172 under setting [3] and inactive: 0.128 under setting [4].

As for `C/C(O)=C(\C#N)C(=O)Nc1cc(Br)ccc1Br`, the “cell viability (log2)” value (0.025 µM, library screen: screen1, EWS-FLI1 expression: high (no doxycycline)) is inactive: 0.198; the “cell viability (log2)” value (0.025 µM, library screen: screen1, EWS-FLI1 expression: low (doxycycline-induced shRNA knockdown)) is inactive: -0.0693; the “cell viability (log2)” value under setting [1] was inactive: 0.124; the “cell viability (log2)” value under setting [2] was inactive: -0.0251; the “cell viability (log2)” value under setting [5] was inactive: 0.133; the “cell viability (log2)” value under setting [6] was inactive: 0.0965. Moreover, the “cell viability (log2)” value under setting [3] was active: -0.396; the “cell viability (log2)” value under setting [4] is inactive: -0.0427; the “cell viability (log2)” value under setting [7] was inactive: 0.0403; the “cell viability (log2)” value under setting [8] is inactive: 0.0594; the “cell viability (log2)” value (25 µM, library screen: screen1, EWS-FLI1 expression: high (no doxycycline)) is active: -0.451; the “cell viability (log2)” value (25 µM, library screen: screen1, EWS-FLI1 expression: low (doxycycline-induced shRNA knockdown)) is inactive: -0.00927.

As to `CNC(=O)Oc1cccc2c1OC(C)(C)C2`, the “cell viability (log2)” value under setting [1] was inactive: 0.0513, the “cell viability (log2)” value under setting [2] was inactive: 0.0685, the “cell viability (log2)” value under setting [3] was inactive: 0.07 and the “cell viability (log2)” value under setting [4] was inactive: 0.106.

In the case of `CN1C2CCC1CC(OC(c1ccccc1)c1ccc(Cl)cc1)C2` (configuration not stated), the “cell viability (log2)” value under setting [5] was inactive: 0.142, the “cell viability (log2)” value under setting [6] was inactive: 0.124, the “cell viability (log2)” value under setting [7] was inactive: 0.232 and the “cell viability (log2)” value under setting [8] is inactive: 0.111.

For `CCCn1c(=O)c2[nH]c(C3CCCC3)nc2n(CCCOC(=O)c2ccc(S(=O)(=O)F)cc2)c1=O`, the “cell viability (log2)” value was inactive: 0.208 under setting [5], inactive: 0.0412 under setting [6], inactive: 0.0267 under setting [7] and inactive: 0.108 under setting [8].

In the case of `CC(O)(CS(=O)(=O)c1ccc(F)cc1)C(=O)Nc1ccc(C#N)c(C(F)(F)F)c1` (configuration not stated), the “cell viability (log2)” value was inactive: 0.0986 under setting [9]; inactive: 0.0273 under setting [10]; inactive: 0.0782 under setting [11]; inactive: 0.0674 under setting [12]; inactive: 0.0286 under setting [13]; inactive: 0.0826 under setting [14]. In addition, the “cell viability (log2)” value is inactive: 0.208 under setting [15]; inactive: 0.095 under setting [16]; inactive: 0.117 under setting [17]; inactive: 0.0788 under setting [18]; inactive: 0.134 under setting [19]; inactive: 0.0817 under setting [20].

On to `CC[C@@H](C(=O)[C@@H](C)[C@@H](O)[C@H](C)[C@@H]1O[C@@H]([C@@H](CC)C(=O)O)CC[C@@H]1C)[C@H]1OC2(C=C[C@@H](O)[C@]3(CC[C@@](C)([C@H]4CC[C@](O)(CC)[C@H](C)O4)O3)O2)[C@H](C)C[C@@H]1C` (some centres not stated), for which the “cell viability (log2)” value reads like this: under setting [1], active: -0.101; under setting [3], active: -0.582.

With `CC(C)Oc1cccnc1N(C)C1CCN(Cc2ccccc2)CC1`, the “cell viability (log2)” value is inactive: 0.0907 under setting [5], inactive: 0.132 under setting [6], inactive: 0.175 under setting [7] and inactive: 0.0196 under setting [8].

Consider `O=[N+]([O-])O[C@H]1CO[C@H]2[C@@H]1OC[C@H]2O[N+](=O)[O-]`, for which the “cell viability (log2)” value is inactive: 0.143 under setting [1], inactive: 0.0742 under setting [2], inactive: 0.196 under setting [3] and inactive: 0.0185 under setting [4].

For `CC(N)C(O)c1ccccc1` (configuration not stated), the “cell viability (log2)” value runs as follows: under setting [1], inactive: 0.0409; under setting [2], inactive: 0.127; under setting [3], inactive: 0.109; under setting [4], inactive: 0.126.

With `O=C(CCCN1CCC2(CC1)C(=O)NCN2c1ccccc1)c1ccc(F)cc1`, the “cell viability (log2)” value was inactive: 0.0953 under setting [1]; inactive: -0.0107 under setting [2]; inactive: 0.158 under setting [5]; inactive: 0.0826 under setting [6]; inactive: 0.212 under setting [3]; inactive: 0.0511 under setting [4]. In addition, the “cell viability (log2)” value reads like this: under setting [7], inactive: 0.208; under setting [8], inactive: 0.119.

For `O=C(O)CF`, the “cell viability (log2)” value is, setting by setting: under setting [1], inactive: -0.0204; under setting [2], inactive: -0.0324; under setting [3], inactive: 0.103; under setting [4], inactive: 0.0882.

Regarding `CCC(=O)Nc1ccc(Cl)c(Cl)c1`, the “cell viability (log2)” value is inactive: 0.114 under setting [1], inactive: -0.0209 under setting [2], inactive: 0.0655 under setting [3] and inactive: 0.0703 under setting [4].

For `CC[C@@H](C)C(=O)O[C@H]1[C@H](O)[C@H]2[C@@H](CN3C[C@@H](C)CC[C@H]3[C@@]2(C)O)[C@@H]2C[C@]34O[C@]5(O)[C@@H](OC(=O)[C@@](C)(O)CC)CC[C@@]3(C)[C@@H]5[C@@H](OC(C)=O)[C@@H](OC(C)=O)[C@H]4[C@@]21O`, the “cell viability (log2)” value is, setting by setting: under setting [1], inactive: -0.0817; under setting [2], inactive: -0.0114; under setting [3], inactive: 0.16; under setting [4], inactive: -0.013.

For the compound `NCC1(CC(=O)O)CCCCC1`, the “cell viability (log2)” value by setting is: under setting [9], inactive: 0.00201; under setting [10], inactive: 0.022; under setting [5], inactive: 0.169; under setting [6], inactive: 0.00729; under setting [11], inactive: 0.0737; under setting [12], inactive: 0.0617. Further, the “cell viability (log2)” value reads like this: under setting [13], inactive: 0.0562; under setting [14], inactive: 0.072; under setting [7], inactive: 0.117; under setting [8], inactive: 0.0573; under setting [15], inactive: 0.041; under setting [16], inactive: 0.028. Besides, the “cell viability (log2)” value under setting [17] is inactive: -0.0307, the “cell viability (log2)” value under setting [18] was inactive: 0.0446, the “cell viability (log2)” value under setting [19] is inactive: 0.00424 and the “cell viability (log2)” value under setting [20] is inactive: 0.0664.

As for `COc1cc2ccc(=O)oc2c2ccoc12`, the “cell viability (log2)” value under setting [1] is inactive: 0.222, the “cell viability (log2)” value under setting [2] was inactive: 0.132, the “cell viability (log2)” value under setting [3] was inactive: 0.248 and the “cell viability (log2)” value under setting [4] is inactive: 0.164.

As to `O=c1cccc2n1C[C@@H]1CNC[C@H]2C1`, the “cell viability (log2)” value is inactive: 0.0148 under setting [1], inactive: -0.00559 under setting [2], inactive: 0.016 under setting [3] and inactive: 0.0651 under setting [4].

Regarding `NC(CCP(=O)(O)O)C(=O)O` (configuration not stated), the “cell viability (log2)” value runs as follows: under setting [5], inactive: 0.115; under setting [6], inactive: 0.0812; under setting [7], inactive: 0.106; under setting [8], inactive: 0.13.

For the compound `C[N+]1(C)CCc2cc3c(cc2[C@H]1[C@@H]1OC(=O)c2c1ccc1c2OCO1)OCO3`, the “cell viability (log2)” value reads like this: under setting [5], inactive: 0.123; under setting [6], inactive: 0.0886; under setting [7], inactive: 0.123; under setting [8], inactive: 0.104.

As for `CCC(C)C(=O)OC1CC2(C)C(c3ccoc3)OC(=O)CC23OC2(C)OC34C(OC(=O)C(C)C)C3(O)C(OC(=O)C5(C)OC5C)C5(C)CC3(O)C(C)(C5CC(=O)OC)C14O2` (configuration not stated), the “cell viability (log2)” value under setting [1] was inactive: 0.108, the “cell viability (log2)” value under setting [2] is inactive: -0.0058, the “cell viability (log2)” value under setting [3] is inactive: 0.0939 and the “cell viability (log2)” value under setting [4] is inactive: 0.12.

Turning to `COc1ccc2c(c1O)-c1cccc3c1[C@@H](C2)N(C)CC3`, the “cell viability (log2)” value under setting [5] was inactive: 0.106, the “cell viability (log2)” value under setting [6] is inactive: 0.0821, the “cell viability (log2)” value under setting [7] is inactive: 0.152 and the “cell viability (log2)” value under setting [8] was inactive: 0.0974.

As to `CC(=O)O[C@H]1CC[C@@]2(C)C(=CCC3C2CC[C@]2(C)C(=O)CCC32)C1` (some centres not stated), the “cell viability (log2)” value was inactive: 0.0955 under setting [1], inactive: 0.0874 under setting [2], inactive: 0.042 under setting [3] and inactive: 0.106 under setting [4].

For `COc1cc2c(c(OC)c1OC)-c1ccc(O)c(=O)cc1C(NC(C)=O)CC2` (configuration not stated), the “cell viability (log2)” value was active: -1.1 under setting [3] and active: -0.493 under setting [4].

Take `O=c1[nH]oc2c1CCNC2`: the “cell viability (log2)” value was inactive: 0.156 under setting [1]; inactive: 0.0142 under setting [2]; inactive: 0.166 under setting [5]; inactive: 0.0432 under setting [6]; inactive: 0.0605 under setting [3]; inactive: 0.0304 under setting [4]. The “cell viability (log2)” value by setting is: under setting [7], inactive: 0.193; under setting [8], inactive: 0.0406.
